In the supplement of paper PMC10369915:
Some of the results follow. No stated cut-off is given here; in the data, active = 3.2 or more and inactive = the rest. The signal is at background level for most entries.

Columns and labels:
Test in all cases: enrichment score (SH2-bound / input frequency) (ratio); bacterial display of known human phosphotyrosine sites (pTyr-Var adds point mutants) read by sequencing; higher = stronger binding; tyrosines were phosphorylated by kinases first
Settings in all cases: peptide library: pTyr-Var
[1] = target: SHP2 C-SH2 domain E139D
[2] = target: SHP2 C-SH2 domain wild-type
[3] = target: SHP2 N-SH2 domain L43F
[4] = target: SHP2 N-SH2 domain T42A
[5] = target: SHP2 N-SH2 domain T52S
[6] = target: SHP2 N-SH2 domain wild-type
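Further: displayed peptides selected on beads carrying the immobilized SH2 domain, with library peptides lacking any tyrosine serving as negative controls.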

Row | Binder | enrichment score [1] | enrichment score [2] | enrichment score [3] | enrichment score [4] | enrichment score [5] | enrichment score [6]
1 | WIGRKYKKVRF [F8_Y442_R437W] | inactive: 0.325 | inactive: 0.263 | inactive: 0.328 | inactive: 0.285 | inactive: 0.234 | inactive: 0.326
2 | VRFMAYTDETC [F8_Y450_F455C] | inactive: 1.06 | inactive: 0.938 | inactive: 0.836 | inactive: 0.898 | inactive: 0.993 | inactive: 1.31
3 | ALVLQYLRVPL [F9_Y371] | active: 3.49 | active: 3.35 | active: 3.3 | inactive: 2.7 | inactive: 2.83 | active: 3.22
4 | DLVLQYLRVPL [F9_Y371_A366D] | inactive: 1.98 | inactive: 1.77 | inactive: 2.34 | inactive: 2.48 | inactive: 2.31 | inactive: 2.08
5 | ENFDDYMKEVG [FABP4_Y20] | inactive: 0.961 | inactive: 0.672 | inactive: 0.604 | inactive: 0.758 | inactive: 0.612 | inactive: 0.89
6 | AESPEHVHMYT [FAM111A_Y511_Y511H] | inactive: 0.748 | inactive: 0.723 | inactive: 0.699 | inactive: 0.715 | inactive: 0.85 | inactive: 0.86
7 | AESPEHVHMFT [FAM111A_Y511_Y511H_YF] | inactive: 0.957 | inactive: 0.966 | inactive: 1.03 | inactive: 0.846 | inactive: 0.937 | inactive: 1.1
8 | LQEQNYLAVDS [FAM114A1_Y115] | inactive: 0.547 | inactive: 0.773 | inactive: 1.17 | inactive: 1.31 | inactive: 0.704 | inactive: 0.706
9 | KRAIGYFSATS [FAM120A_Y327_YF] | inactive: 0.822 | inactive: 0.909 | inactive: 0.635 | inactive: 0.683 | inactive: 0.833 | inactive: 0.994
10 | EEDPEYKKKFR [FAM161A_Y278] | inactive: 0.794 | inactive: 0.539 | inactive: 0.655 | inactive: 0.52 | inactive: 0.62 | inactive: 0.635
11 | GNEEAYGSSHI [FAM171B_Y522_R524S] | inactive: 0.415 | inactive: 0.335 | inactive: 0.511 | inactive: 0.441 | inactive: 0.395 | inactive: 0.523
12 | VRSVDYVLFRS [FAM189B_Y361] | inactive: 0.827 | inactive: 0.889 | inactive: 0.863 | inactive: 0.92 | inactive: 0.827 | inactive: 0.824
13 | MTFQNYRQALF [FAM20C_Y279_G280R] | inactive: 1.01 | inactive: 0.88 | inactive: 1.12 | inactive: 0.925 | inactive: 1.02 | inactive: 0.874
14 | AAVDEYLEYRR [FAM221A_Y17] | inactive: 0.962 | inactive: 0.681 | inactive: 0.964 | inactive: 0.582 | inactive: 0.695 | inactive: 0.854
15 | AAVDEYLEHRR [FAM221A_Y17_Y20H] | inactive: 0.688 | inactive: 0.745 | inactive: 0.764 | inactive: 0.646 | inactive: 0.688 | inactive: 0.94
16 | DEYLEYRRIVG [FAM221A_Y20] | inactive: 0.671 | inactive: 0.573 | inactive: 0.7 | inactive: 0.57 | inactive: 0.694 | inactive: 0.784
17 | DEYLEHRRIVG [FAM221A_Y20_Y20H] | inactive: 0.701 | inactive: 0.778 | inactive: 0.534 | inactive: 0.78 | inactive: 0.646 | inactive: 0.69
18 | DEFLEYRRIVG [FAM221A_Y20_YF] | inactive: 0.754 | inactive: 0.661 | inactive: 0.875 | inactive: 0.696 | inactive: 0.672 | inactive: 0.884
19 | SCPANYFAFKI [FAM3D_Y65_P60S] | inactive: 1.56 | inactive: 1.5 | inactive: 1.72 | inactive: 1.23 | inactive: 1.56 | inactive: 1.46
